By IC50 is meant the dose at which the fit gives 50% viability; a fit beyond the top or the lowest dose is shown as a bound at that dose. AUC is the area under the same curve over the 256-fold range up to the top dose, as a fraction: 1 means no effect, lower means more sensitive. For part of these data: The top dose, if marked as inferred, was derived from the fitted curves, not read from the paper. For part of these data: Drugs with an entry number were screened twice under separate entries, and the two screens often disagree.
What was measured:
Assay in all cases: Viability of human cancer cell lines after 72 h of drug (GDSC screen)
CHIR-99021 = compound: Cc1cnc(-c2cnc(NCCNc3ccc(C#N)cn3)nc2-c2ccc(Cl)cc2Cl)[nH]1 [CHIR-99021]
Protocol: (§1)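 Human cancer cell lines in 384-well plates, medium with 10% serum, drug for 72 h over a 256-fold dose range (nine 2-fold or five 4-fold steps up to the top dose). Adherent lines were fixed and stained with the nucleic acid dye Syto60, suspension lines read with resazurin; signal relative to control wells, capped at 0 and 100%. One two-parameter sigmoid per drug and line, fitted in a mixed model over all curves with the slope shared within a line.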

MPS-1-IN-1 = compound: COc1cc(N2CCC(O)CC2)ccc1Nc1cc(Nc2ccccc2S(=O)(=O)C(C)C)c2cc[nH]c2n1 [MPS-1-IN-1]; settings: top dose 20 µM; top dose inferred
Protocol: as §1

(5Z)-7-Oxozeaenol = compound: COc1cc(O)c2c(c1)/C=C/C[C@H](O)[C@H](O)C(=O)/C=C\C[C@H](C)OC2=O [(5Z)-7-Oxozeaenol]; settings: top dose 10 µM; top dose inferred
Protocol: as §1

Thapsigargin = compound: C/C=C(/C)C(=O)O[C@H]1C(C)=C2[C@H]([C@@H]1OC(=O)CCCCCCC)[C@@](C)(OC(C)=O)C[C@H](OC(=O)CCC)[C@@]1(O)[C@H]2OC(=O)[C@@]1(C)O [Thapsigargin]; settings: top dose 0.512 µM; top dose inferred
Protocol: as §1

GSK269962A = compound: CCn1c(-c2nonc2N)nc2cnc(Oc3cccc(NC(=O)c4ccc(OCCN5CCOCC5)cc4)c3)cc21 [GSK269962A]; settings: top dose 5 µM; screen: GDSC drug entry 1192; top dose inferred
Protocol: as §1

ABT-888 = compound: C[C@]1(c2nc3c(C(N)=O)cccc3[nH]2)CCCN1 [ABT-888]; settings: top dose 5 µM; top dose inferred
Protocol: as §1

Zibotentan = compound: COc1nc(C)cnc1NS(=O)(=O)c1cccnc1-c1ccc(-c2nnco2)cc1 [Zibotentan]; settings: top dose 20 µM; top dose inferred
Protocol: as §1

ABT-869 = compound: Cc1ccc(F)c(NC(=O)Nc2ccc(-c3cccc4[nH]nc(N)c34)cc2)c1 [ABT-869]; settings: top dose 1.024 µM; top dose inferred
Protocol: as §1

QL-X-138 = compound: C=CC(=O)Nc1cc(-n2c(=O)ccc3cnc4ccc(-c5cn[nH]c5)cc4c32)ccc1C [QL-X-138]; settings: top dose 10.24 µM; top dose inferred
Protocol: as §1

CP466722 = compound: COc1cc2ncnc(-n3nc(-c4ccccn4)nc3N)c2cc1OC [CP466722]; settings: top dose 16 µM; top dose inferred
Protocol: as §1

KU-55933 = compound: O=c1cc(-c2cccc3c2Sc2ccccc2S3)oc(N2CCOCC2)c1 [KU-55933]; settings: top dose 10 µM
Protocol: as §1

[1] = top dose 2.56 µM, screen: GDSC drug entry 154
[2] = top dose 10 µM, screen: GDSC drug entry 1241, top dose inferred

Cell Line | AUC (CHIR-99021; [1]) | IC50 (CHIR-99021; [1]) [µM] | AUC (CHIR-99021; [2]) | IC50 (CHIR-99021; [2]) [µM] | AUC (MPS-1-IN-1) | IC50 (MPS-1-IN-1) [µM] | AUC ((5Z)-7-Oxozeaenol) | IC50 ((5Z)-7-Oxozeaenol) [µM] | AUC (Thapsigargin) | IC50 (Thapsigargin) [µM] | AUC (GSK269962A) | IC50 (GSK269962A) [µM] | AUC (ABT-888) | IC50 (ABT-888) [µM] | AUC (Zibotentan) | IC50 (Zibotentan) [µM] | AUC (ABT-869) | IC50 (ABT-869) [µM] | AUC (QL-X-138) | IC50 (QL-X-138) [µM] | AUC (CP466722) | IC50 (CP466722) [µM] | AUC (KU-55933) | IC50 (KU-55933) [µM]
ABC-1 (lung adenocarcinoma, adherent) | 0.983 | > 2.56 | 0.98 | > 10 | 0.847 | 19.6 | 0.694 | 2.47 | 0.143 | < 0.002 | 0.833 | 4.2 | 0.963 | > 5 | 0.971 | > 20 | 0.966 | > 1.02 | 0.627 | 1.55 | 0.784 | 8.35 | – | –
ACHN (kidney, adherent) | 0.918 | > 2.56 | 0.876 | > 10 | 0.953 | > 20 | 0.67 | 2 | 0.441 | 0.0216 | 0.885 | > 5 | 0.979 | > 5 | 0.981 | > 20 | 0.98 | > 1.02 | 0.874 | > 10.2 | 0.817 | 10.6 | – | –
HT-29 (large intestine, adherent) | 0.981 | > 2.56 | 0.959 | > 10 | 0.832 | 12.7 | 0.567 | 0.954 | 0.201 | 0.00419 | 0.908 | > 5 | 0.988 | > 5 | 0.987 | > 20 | 0.971 | > 1.02 | 0.756 | 3.5 | – | – | – | –
MCF7 (breast, adherent) | 0.954 | > 2.56 | 0.859 | 8.78 | 0.986 | > 20 | 0.746 | 3.28 | 0.046 | < 0.002 | 0.844 | 3.8 | 0.986 | > 5 | 0.986 | > 20 | 0.982 | > 1.02 | 0.985 | > 10.2 | – | – | – | –
MDA-MB-468 (breast, adherent) | 0.988 | > 2.56 | 0.987 | > 10 | 0.903 | > 20 | 0.612 | 1.26 | 0.162 | 0.00312 | 0.928 | > 5 | – | – | 0.985 | > 20 | 0.988 | > 1.02 | 0.569 | 0.98 | 0.745 | 4.88 | 0.922 | > 10
MFE-319 (endometrium, adherent) | 0.979 | > 2.56 | 0.966 | > 10 | 0.97 | > 20 | 0.764 | 3.52 | 0.123 | 0.00211 | 0.947 | > 5 | – | – | 0.982 | > 20 | 0.988 | > 1.02 | 0.754 | 3.35 | 0.863 | 13.1 | 0.923 | > 10
MKN1 (stomach, adherent) | 0.949 | > 2.56 | 0.959 | > 10 | 0.937 | > 20 | 0.718 | 2.7 | 0.523 | 0.0371 | 0.889 | > 5 | – | – | 0.987 | > 20 | 0.986 | > 1.02 | 0.817 | 6.12 | 0.839 | 11.8 | 0.873 | > 10
NCI-H1734 (lung adenocarcinoma, adherent) | – | – | – | – | 0.927 | > 20 | – | – | 0.27 | 0.00658 | – | – | 0.98 | > 5 | 0.985 | > 20 | 0.98 | > 1.02 | 0.807 | 5.9 | 0.874 | > 16 | – | –
NCI-H2030 (lung adenocarcinoma, adherent) | 0.982 | > 2.56 | 0.967 | > 10 | 0.945 | > 20 | 0.693 | 2.37 | 0.266 | 0.00619 | 0.849 | 4.6 | – | – | 0.976 | > 20 | 0.976 | > 1.02 | 0.703 | 2.61 | 0.749 | 5.82 | 0.876 | > 10
NCI-H2085 (lung adenocarcinoma, adherent) | 0.985 | > 2.56 | 0.954 | > 10 | 0.96 | > 20 | 0.758 | 3.73 | 0.312 | 0.00907 | 0.951 | > 5 | – | – | 0.986 | > 20 | 0.976 | > 1.02 | 0.709 | 2.64 | 0.796 | 8.18 | 0.912 | > 10
NUGC-3 (stomach, adherent) | 0.974 | > 2.56 | 0.98 | > 10 | 0.947 | > 20 | 0.66 | 1.85 | 0.208 | 0.00389 | 0.946 | > 5 | – | – | 0.983 | > 20 | 0.975 | > 1.02 | 0.871 | > 10.2 | 0.938 | > 16 | 0.901 | > 10
OAW-28 (ovary, adherent) | 0.917 | > 2.56 | 0.977 | > 10 | 0.918 | > 20 | 0.802 | 6.49 | 0.579 | 0.0557 | 0.977 | > 5 | – | – | 0.98 | > 20 | 0.983 | > 1.02 | 0.831 | 9.01 | 0.896 | > 16 | 0.967 | > 10

— the supplement of paper PMC4967469
